# In all, about 81,000 sequences were measured (“one-hybrid fitness for binding parS DNA”: median about -0.17, highest 2% from about 0.51 on). Some of the results follow.
# B1: Caulobacter ParB omega fusion; a variant is named by its letters at X, in order, B8GW30 (parent)
# chain: MESVVVGEPGMSEGRRGLGRGLSALLGEVDAAPAQAPGEQLGGSREAPIEILQRNPDQPRRTFREEDLEDLSNSIREKGVLQPILVRPSPDTAGEYQIVAGERAWRAAQRAGLKTVPIMVRELDDLAVLEIGIIENVQRADLNVLEEALSYKVLMEKFERTQENIAQTIGKSXSHVANXMRLLXLPDEVQSYLVSGELTAXHARAIAAAADPVALAKQIIEGGLSVRETEALARKAPNLSAGKSKGGRPPRVKDTDTQALESDLSSVLGLDVSIDHRGSTGTLTITYATLEQLDDLCNRLTRGI
# Variants of: B1
# Test: one-hybrid fitness for binding parS DNA (scaled: cognate 1, non-cognate 0); higher = stronger binding
# Conditions: with parS DNA site
# Procedure, shortened: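 Selection: bacterial one-hybrid in E. coli USO, HIS3 reporter with the site 19 bp from the promoter, 48 hours at 37°C on M9-minus-histidine plus 0.1 mM IPTG and 5 mM 3-AT. Libraries were Caulobacter ParB with four randomised specificity codons, sequenced on Illumina before and after selection. Fitness is the rescaled log change in variant-to-wild-type read ratio, anchored to the cognate and non-cognate sites.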
row,Variant,one-hybrid fitness for binding parS DNA
1,RIMN,0.39
2,ADMG,≤ 0.2
3,RHTH,≤ 0.2
4,GRWR,≤ 0.2
5,NTND,≤ 0.2
6,FRWG,≤ 0.2
7,SLPT,≤ 0.2
8,TPVG,≤ 0.2
9,LAFC,≤ 0.2
10,AIDR,≤ 0.2
11,ALHG,≤ 0.2
12,ISAS,≤ 0.2
13,PDYC,≤ 0.2
14,AVSR,≤ 0.2
15,WQAV,≤ 0.2
16,YTDT,≤ 0.2
17,NCPM,≤ 0.2
18,EHTN,≤ 0.2
19,RKMV,≤ 0.2
20,TLVY,≤ 0.2
21,TRTH,≤ 0.2
22,SPLM,≤ 0.2
23,EMRY,≤ 0.2
24,WQWG,≤ 0.2
25,MSFM,≤ 0.2

row,Variant,one-hybrid fitness for binding parS DNA
1,HRIF,≤ 0.2
2,TEQR,≤ 0.2
3,RGEN,≤ 0.2
4,NCHA,≤ 0.2
5,VNGR,≤ 0.2
6,IGNR,≤ 0.2
7,GLKH,≤ 0.2
8,QTRE,≤ 0.2
9,LAAY,≤ 0.2
10,KVPC,≤ 0.2
11,PPKF,≤ 0.2
12,PVGN,≤ 0.2
13,RIDM,0.256
14,DVTQ,≤ 0.2
15,DNGS,≤ 0.2
16,VVMM,≤ 0.2
17,QVWE,≤ 0.2
18,RTTQ,≤ 0.2
19,PNHA,≤ 0.2
20,TAAV,≤ 0.2
21,KPYC,≤ 0.2
22,EYRS,≤ 0.2
23,QQGP,≤ 0.2
24,WLYI,≤ 0.2
25,VNQC,≤ 0.2

row,Variant,one-hybrid fitness for binding parS DNA
1,MLSV,≤ 0.2
2,LYTH,≤ 0.2
3,WPEN,≤ 0.2
4,EAWS,≤ 0.2
5,QPLI,≤ 0.2
6,YYQG,≤ 0.2
7,TFQG,≤ 0.2
8,CYSC,≤ 0.2
9,WKNS,≤ 0.2
10,LTNT,≤ 0.2
11,TSVR,≤ 0.2
12,DAMN,≤ 0.2
13,AFHG,≤ 0.2
14,GTRR,≤ 0.2
15,QMYM,≤ 0.2
16,YGRV,≤ 0.2
17,QTGI,≤ 0.2
18,PFCG,≤ 0.2
19,DTAW,≤ 0.2
20,QPDN,≤ 0.2
21,TNPT,≤ 0.2
22,QGMR,≤ 0.2
23,QLHV,≤ 0.2
24,VKTP,≤ 0.2
25,KLEG,≤ 0.2

row,Variant,one-hybrid fitness for binding parS DNA
1,RRMQ,≤ 0.2
2,FTGL,≤ 0.2
3,CVAL,≤ 0.2
4,QSCM,≤ 0.2
5,RWKT,0.811
6,VAFG,≤ 0.2
7,WYNA,≤ 0.2
8,VDNR,≤ 0.2
9,ARCI,≤ 0.2
10,PAPR,≤ 0.2
11,WDAR,≤ 0.2
12,LYTE,≤ 0.2
13,AAMD,≤ 0.2
14,AAWQ,≤ 0.2
15,AGTC,≤ 0.2
16,QPRT,≤ 0.2
17,GAVC,≤ 0.2
18,TVMM,≤ 0.2
19,WGYS,≤ 0.2
20,EVNA,≤ 0.2
21,DYLY,≤ 0.2
22,TPER,≤ 0.2
23,HRKS,0.418
24,DKIS,≤ 0.2
25,HHTN,≤ 0.2

row,Variant,one-hybrid fitness for binding parS DNA
1,QISN,≤ 0.2
2,QCQE,≤ 0.2
3,AYFM,≤ 0.2
4,SFHY,≤ 0.2
5,VDPL,≤ 0.2
6,NLNV,≤ 0.2
7,STTG,≤ 0.2
8,TQGV,≤ 0.2
9,SRIG,≤ 0.2
10,SGEL,≤ 0.2
11,GKDR,≤ 0.2
12,YGSN,≤ 0.2
13,YSLD,≤ 0.2
14,TNTH,≤ 0.2
15,TKLW,≤ 0.2
16,YLQF,≤ 0.2
17,LSAS,≤ 0.2
18,PSES,≤ 0.2
19,VYRN,≤ 0.2
20,TALF,≤ 0.2
21,PTQF,≤ 0.2
22,RMEI,≤ 0.2
23,ATWG,≤ 0.2
24,MNAS,≤ 0.2
25,HAQF,≤ 0.2

row,Variant,one-hybrid fitness for binding parS DNA
1,MKHG,≤ 0.2
2,WGTV,≤ 0.2
3,FWSC,≤ 0.2
4,QQQS,≤ 0.2
5,RCCS,1.01
6,ATTS,≤ 0.2
7,RGQS,0.803
8,MKIR,≤ 0.2
9,TEKL,≤ 0.2
10,LQRG,≤ 0.2
11,QPAW,≤ 0.2
12,DRTS,≤ 0.2
13,GLLW,≤ 0.2
14,LMNV,≤ 0.2
15,NHKG,≤ 0.2
16,NGCS,≤ 0.2
17,NWHQ,≤ 0.2
18,HSYL,≤ 0.2
19,PDHK,≤ 0.2
20,LTCS,≤ 0.2
21,KREF,≤ 0.2
22,WSSR,≤ 0.2
23,IVMF,≤ 0.2
24,CTDV,≤ 0.2
25,LKDV,≤ 0.2

row,Variant,one-hybrid fitness for binding parS DNA
1,DTMC,≤ 0.2
2,HACN,≤ 0.2
3,FETN,≤ 0.2
4,ANFG,≤ 0.2
5,CPPA,≤ 0.2
6,DSAV,≤ 0.2
7,RPGN,≤ 0.2
8,ASAY,≤ 0.2
9,AHHK,≤ 0.2
10,VMAE,≤ 0.2
11,RLAV,≤ 0.2
12,WVLC,≤ 0.2
13,VERR,≤ 0.2
14,QHPG,≤ 0.2
15,PTPF,≤ 0.2
16,YHFC,≤ 0.2
17,TDYR,≤ 0.2
18,ILGT,≤ 0.2
19,GGQR,≤ 0.2
20,GDRT,≤ 0.2
21,RTAP,≤ 0.2
22,TDQL,≤ 0.2
23,TTHF,≤ 0.2
24,PTTR,≤ 0.2
25,KALT,≤ 0.2

row,Variant,one-hybrid fitness for binding parS DNA
1,NWSN,≤ 0.2
2,TRCC,≤ 0.2
3,LDFI,≤ 0.2
4,VTMY,≤ 0.2
5,QKDI,≤ 0.2
6,IKMC,≤ 0.2
7,YNNG,≤ 0.2
8,DTNP,≤ 0.2
9,KAIC,≤ 0.2
10,FTHG,≤ 0.2
11,TLNA,≤ 0.2
12,IINF,≤ 0.2
13,IRKN,≤ 0.2
14,MALR,≤ 0.2
15,LFTK,≤ 0.2
16,GAMF,≤ 0.2
17,RNYN,0.235
18,HTYF,≤ 0.2
19,RNVN,≤ 0.2
20,HRTM,≤ 0.2

# Reference: a collection of fitness landscapes (doi:10.1016/j.celrep.2020.107928)
